Results taken from PubChem BioAssay AID360 (National Center for Advancing Translational Sciences (NCATS), 2006).
The campaign covered roughly 48,000 compounds. About 550 (1.1%) were called active. Roughly 4% stayed inconclusive and do not appear here. No stated cut-off is given here; in the data, active means potency below about 15 µM; inconclusive means mostly about 16 µM to 33 µM; inactive means weaker than that. The list shows a part of the results.

Target: Lysosomal acid glucosylceramidase (Homo sapiens) (UniProt P04062)
Sequence of UniProt P04062 (P04062 whole entry, looked up): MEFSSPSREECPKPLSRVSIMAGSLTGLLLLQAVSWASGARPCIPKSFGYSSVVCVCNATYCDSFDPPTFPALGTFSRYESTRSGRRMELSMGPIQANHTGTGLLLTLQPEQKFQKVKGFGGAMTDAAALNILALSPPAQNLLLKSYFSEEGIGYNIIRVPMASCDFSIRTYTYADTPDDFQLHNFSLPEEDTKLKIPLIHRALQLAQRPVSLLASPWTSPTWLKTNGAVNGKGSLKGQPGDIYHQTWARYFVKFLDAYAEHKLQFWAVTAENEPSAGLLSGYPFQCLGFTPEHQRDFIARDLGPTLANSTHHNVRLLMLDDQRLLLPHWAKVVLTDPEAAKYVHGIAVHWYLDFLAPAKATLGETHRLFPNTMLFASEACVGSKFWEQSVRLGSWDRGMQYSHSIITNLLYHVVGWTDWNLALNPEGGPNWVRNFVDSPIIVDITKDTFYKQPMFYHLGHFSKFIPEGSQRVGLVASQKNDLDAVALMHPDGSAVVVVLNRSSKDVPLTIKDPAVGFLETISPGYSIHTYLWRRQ
Assay: Glucocerebrosidase;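 further: the screen sought inhibitors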
Conditions: purified enzyme, resorufin glucoside fluorescence (screen aimed at inhibitors), 20 min
Procedure, shortened: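 Compounds titrated against 0.2 nM normal enzyme, 30 uM resorufin beta-D-glucopyranoside substrate, citrate/phosphate buffer with taurocholate and tween-20, pH 5.9. Reaction ran 20 min at room temperature; fluorescence (Ex 548/Em 600) gave AC50.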
Potency means the concentration at half of the fitted maximal effect.

Potency, inactive:
CC1CCCCN1CCNC(=O)CN1C(=O)COc2ccccc21 (centres undefined) > 76.9 µM, CCOc1ccccc1N1CCN(C(=O)c2ccccc2)CC1 > 76.9 µM, COc1cccc(C(=O)Nc2ncc3c(n2)CC(C)CC3=O)c1 (centres undefined) > 76.9 µM, CCc1cccc(NC(=O)NC2CCCCC2)c1 > 76.9 µM, Cc1cc(NC(=O)COn2nnc3ccccc32)no1 > 76.9 µM, Nc1nnc(SCC(=O)Nc2ccccc2N2CCOCC2)s1 > 76.9 µM, Cc1ccccc1NC(=O)c1c(-c2ccccc2)noc1C > 76.9 µM, O=C(Nc1ccccc1)N1CCn2c1nc1ccccc12 > 76.9 µM, Cc1cc(N/C=C2\CCCCC2=O)no1 > 76.9 µM, Cc1cc(NC(=O)COC(=O)c2n[nH]c3ccccc23)no1 > 76.9 µM, CCC(=O)N1c2ccc(S(=O)(=O)CCC(=O)N3CCN(c4ccccc4)CC3)cc2CC1C (centres undefined) > 76.9 µM, CN(C)CCCN1C(=O)C(=O)/C(=C(/O)c2ccncc2)C1c1cccnc1 (centres undefined) > 76.9 µM, COc1ccccc1NS(=O)(=O)c1ccc(O)c(C(N)=O)c1 > 76.9 µM, NC(=O)c1sc2nccc(Nc3ccccc3)c2c1N > 76.9 µM, Cc1ccc(-c2nn[nH]n2)o1 > 76.9 µM, CCOc1ccccc1NS(=O)(=O)c1ccc(OC)c(OC)c1 > 76.9 µM, CCn1nc(NC(=O)c2ccccn2)c2cc3cc(C)ccc3nc21 > 76.9 µM, O=C(OCc1nnc(-c2ccccc2)o1)C1CCN(S(=O)(=O)c2cccs2)CC1 > 76.9 µM, O=C(Nc1ccccc1)NC1(C(=O)NCc2ccco2)CCCCC1 > 76.9 µM, COc1cc(CO)cc(-c2cc(CO)cc(OC)c2OC)c1OC > 76.9 µM, CCN(C(=O)c1cccs1)c1nnc(-c2ccncc2)s1 > 76.9 µM, Cc1ccc(C(NC(=O)N2CCOCC2)=C(Cl)Cl)cc1F > 76.9 µM, COc1cc(-n2c(=O)c3ccccc3n(Cc3cccnc3)c2=O)cc(OC)c1OC > 76.9 µM, CC(=O)C1=C(O)CCC1=N > 76.9 µM, Cc1c(CN2CCN(c3cccc(C(F)(F)F)c3)CC2)c(=O)n(-c2ccccc2)n1C > 76.9 µM, COc1ccc2[nH]c(=O)c(CN(CCN(C)C)C(=O)NCc3ccccc3)cc2c1 > 76.9 µM, COc1cccc(-c2cc(C(=O)Nc3cnn(Cc4ccccc4C)c3)no2)c1 > 76.9 µM, CC(C)NC(=O)C1(O)c2ccccc2NC(=O)N1c1ccc(Cl)c(Cl)c1 (centres undefined) > 76.9 µM, c1cc2c(nn1)CCc1nonc1-2 > 76.9 µM, COCCn1c(C)cc(C(=O)COC(=O)c2ccc3ncsc3c2)c1C > 76.9 µM, COc1ccc(CC(=O)N(Cc2cc3cc(OC)ccc3[nH]c2=O)C(C)C)cc1 > 76.9 µM, c1ccc2c(c1)CCCC2C1=NCCN1 (centres undefined) > 76.9 µM, S=c1[nH]nc(COc2ccc3c(c2)OCO3)n1-c1ccccc1 > 76.9 µM, O=C(CSc1nc2ccccc2n1CC(=O)N1CCCC1)Nc1nccs1 > 76.9 µM, Cc1ccc(SCc2[nH]nc3c2C(c2cccnc2)C(C#N)=C(N)O3)cc1 (centres undefined) > 76.9 µM, O=C(Cn1nnc(-c2ccc(CN3CCOCC3)cc2)n1)Nc1nc(-c2ccccc2)cs1 > 76.9 µM, COc1ccc(N2CCN(C(=O)c3cc4c(-c5cccc(OC)c5)nn(C)c4s3)CC2)cc1 > 76.9 µM, COc1ccc2[nH]c3c(=O)n(Cc4ccco4)cnc3c2c1 > 76.9 µM, O=P(c1ccc2c(c1)OCCO2)(N1CCOCC1)N1CCOCC1 > 76.9 µM, Cc1cn(C(=O)CN2C(=O)c3ccccc3C2=O)c(C)n1 > 76.9 µM, O=C(Cn1cc(/C=N/O)c2ccccc21)N1CCOCC1 > 76.9 µM, COCCOC(=O)c1c(C)oc2ccc(NS(=O)(=O)c3ccccc3)cc12 > 76.9 µM, CCOC(=O)CCCOC(=O)c1ccc(S(=O)(=O)N(C)C)cc1 > 76.9 µM, CCCC(=O)Nc1ccccc1NC(=O)CN(C)S(=O)(=O)c1ccc(C)cc1 > 76.9 µM, O=C(Cn1nc(-c2ccccc2)c2ccccc2c1=O)NCC1CCCO1 (centres undefined) > 76.9 µM, COc1cc2c(cc1OC)C(c1ccc3c(c1)OCO3)C1=C(CC(C)(C)CC1=O)N2 (centres undefined) > 76.9 µM, O=C(COc1ccc(Cl)cc1)Nc1ncccn1 > 76.9 µM, CCOC(=O)C1CCCN(C(=O)CN2C(=O)COc3ccc(C(C)(C)C)cc32)C1 (centres undefined) > 76.9 µM, O=C(Cc1ccccc1)Nc1c2c(nn1-c1cccc(Cl)c1)CS(=O)(=O)C2 > 76.9 µM, CC(=O)N1CCc2cc(S(=O)(=O)CCC(=O)N3CCN(C(=O)c4ccco4)CC3)ccc21 > 76.9 µM, CCC(C)NC(=O)C1c2cc(OC)c(OC)cc2C(=O)N(C)C1c1ccc(OC)cc1 (centres undefined) > 76.9 µM, CCn1nccc1C(=O)Nc1nccs1 > 76.9 µM, CCOC(=O)N1CCN(C(=O)C(NS(=O)(=O)c2cccc3nsnc23)c2ccccc2)CC1 (centres undefined) > 76.9 µM, Cn1c(SCC(=O)N2CCN(c3cccc(Cl)c3)CC2)nnc1-c1ccncc1 > 76.9 µM, Clc1ccc(Cc2noc(-c3cccs3)n2)cc1 > 76.9 µM, Cc1cc(C)cc(OCCCC(=O)O)c1 > 76.9 µM, Cc1occc1-c1nnc(SCC(=O)Nc2nccs2)n1Cc1ccco1 > 76.9 µM, COc1ccc(OC)c(S(=O)(=O)n2cccn2)c1 > 76.9 µM, COc1ccc(CN(Cc2ccccn2)C(=O)CN2C(=O)COc3ccccc32)cc1 > 76.9 µM
